Data: PubChem BioAssay AID588855 (National Center for Advancing Translational Sciences (NCATS), 2011)
Among all 410,000 compounds or so, about 5,000 (1.2%) were called active. This list was built around the results that the source calls inconclusive (neither active nor inactive); the mix of calls is not that of the screen. Calls follow the shape of the dose curve; as a rule, active = well fitted inhibition curve with a large enough effect; inconclusive = small, poorly fitted or top-dose-only effect; inactive = no such curve, though single readings can be large or run the other way. Potencies of inconclusive entries are doubtful fits and often do not repeat.

Experiment: qHTS for Inhibitors of TGF-b; also: nearly all actives have a fitted effect of over 65% in size
Conditions: HepG2 CAGA-GFP TGF-b/SMAD3 reporter, GFP fluorescence, 18 h, TGF-beta stimulated, 500 pg/mL final; series mostly up to 46.1 µM
Summary of the method: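 Inhibition was scored as loss of TGF-beta-induced (500 pg/mL final, 18 hours, 37 degrees C) GFP in HEPG2 cells carrying a CAGA-GFP reporter, in DMEM with 1% FBS. Well GFP was summed per cell; Activity was normalised to unstimulated and stimulated DMSO wells, then concentration-response fitting.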
Potency is read from the fitted curve at half-maximal effect; tags tell the direction and shape of the fitted curve.

**Q.** With `Cc1ccc2c(c1)c1c3n2CCN(C(=O)c2cccc(C(F)(F)F)c2)C3CCC1` (configuration not stated) as the compound, how does the Potency read?
**A.** The Potency was inconclusive: 8.91 µM [inhibitor, partial curve, poor fit].

**Q.** For `CCc1cccc(C)c1Nc1c(-c2ccsc2)nc2ncccn12`, which Potency is on record?
**A.** The Potency was inconclusive: 35.5 µM [inhibitor, single point].

**Q.** With `Cc1cccc(CN2CCC(Oc3ccc(C(=O)N4CCCC4)cc3)CC2)n1` as the compound, how does the Potency read?
**A.** The Potency was inconclusive: 10 µM [inhibitor, partial curve].

**Q.** Which Potency does the source give for `Cc1nn(Cc2ccc(Cl)cc2)c(C)c1NC(=O)c1cc(-c2ccc3c(c2)OCO3)on1` here?
**A.** Its Potency is inconclusive: 35.5 µM [inhibitor, single point].

**Q.** With `Cc1csc(NC(=S)NC(=O)c2ccccc2)n1` as the compound, how does the Potency read?
**A.** The Potency was inconclusive: 2.51 µM [inhibitor, partial curve, poor fit].

**Q.** For `O=C(Cn1c(=O)nc(-c2ccccc2F)c2cc(Cl)ccc21)NCCCc1ccccc1`, which Potency is on record?
**A.** Its Potency is inconclusive: 6.31 µM [inhibitor, partial curve, poor fit].

**Q.** For `Cc1ccsc1C(=O)Nc1nc2ccccc2[nH]1`, which Potency is on record?
**A.** Its Potency is inconclusive: 35.5 µM [inhibitor, single point].

**Q.** Which Potency does the source give for `CC(=O)Oc1c(C)cc(Cl)cc1C(=O)Nc1ccc([N+](=O)[O-])cc1Cl` here?
**A.** The Potency was inconclusive: 0.631 µM [inhibitor, full curve].

**Q.** With `C#CCOCCOCCOCCNc1nc(N2CCN(C(=O)CCCCCCCCCCNC(=O)[C@H](CCCCN)n3cc(CCCC(=O)O)nn3)CC2)nc(N2CCN(C(=O)CCCCCCCCCCNC(=O)[C@@H]([C@H](C)O)n3cc(C)nn3)CC2)n1` as the compound, how does the Potency read?
**A.** Its Potency is active: 11.2 µM.

**Q.** For `CC1CCc2sc(C(=O)NN)cc2C1` (configuration not stated), which Potency is on record?
**A.** The Potency was inconclusive: 0.251 µM [inhibitor, full curve, poor fit].

**Q.** Which Potency does the source give for `COc1ccc(C(=O)C2CCCN(C(=O)c3ccc4cc[nH]c4c3)C2)c(C)c1` (configuration not stated) here?
**A.** Its Potency is inconclusive: 25.1 µM [inhibitor, single point].

**Q.** With `COc1ccc(C(C(=O)NC(C)(C)C)N(C[C@H]2CC[C@@H]([C@@H]3CC[C@H](CO)O3)O2)C(=O)c2ccccc2)cc1` (some centres not stated) as the compound, how does the Potency read?
**A.** The Potency was inconclusive: 25.1 µM [inhibitor, single point].

**Q.** For `COc1ccc(-c2noc(C)c2-c2ccc3ccccc3n2)c(O)c1`, which Potency is on record?
**A.** Its Potency is inconclusive: 25.1 µM [inhibitor, single point].

**Q.** Which Potency does the source give for `COc1cc(-c2ncc3ccccn23)cc(OC)c1OC` here?
**A.** The Potency was “inactive”.

**Q.** Which Potency does the source give for `CC(=O)N1CCN(C(=O)c2ccc(-n3c(C)ccc3C)cc2)CC1` here?
**A.** The Potency was “inactive”.

**Q.** Which Potency does the source give for `O=C(Nc1nc(-c2ccccc2)cs1)c1cccs1` here?
**A.** The Potency was inconclusive: 35.5 µM [inhibitor, single point].

**Q.** Which Potency does the source give for `Cc1nnc(N/N=C/c2cc(C)n(-c3ccc(F)cc3)c2C)n1N` here?
**A.** Its Potency is active: 14.1 µM.
